# In all, about 33,000 sequences were measured (“E-score (-0.5 to 0.5)”: median about -0.056, highest 2% from about 0.38 on). This is one part of the list.
# Target: Stb4 (UniProt P50104)
# Experiment: PBM E-score (8-mer binding enrichment) (E-score (-0.5 to 0.5)); higher = stronger / more preferred TF binding; most listed sequences are background and not binding sites
# Settings: protein concentration: 200 nM; construct: GST-DNA-binding domain
# Method in brief: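 Yeast transcription factors, full-length or as DNA-binding domains, were expressed with a GST tag using PURExpress in vitro transcription/translation. At about 100-200 nM they were applied to universal all-10-mer Agilent arrays, double-stranded by primer extension on fresh or once-stripped slides. Fluorescent anti-GST detected bound protein, and masliner normalised the scans. E-scores for ungapped eight-base words, pooled with reverse complements, came from the Universal PBM Analysis Suite.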
row,Sequence,PBM E-score
1,AATACTGA,-0.226
2,AATGGCAT,0.0295
3,GGAGGACA,-0.014
4,ATGCTTCA,-0.163
5,CCACCTTA,-0.186
6,CAGTGTCC,-0.0717
7,GTCAGGAA,-0.0135
8,AACCGGCT,0.23
9,ACGCTGAT,-0.187
10,GTAAAATA,-0.0636
11,ATAGCTTG,-0.104
12,AATGAGCG,0.00898
13,CGATATCC,0.282
14,ACGGCGTC,0.0418
15,CGTATAAC,-0.0797
16,AATTGGTG,-0.156
17,GCGTCCAC,0.00263
18,CATTTCCA,-0.196
19,GCTTAAAA,-0.111
20,ATACTGCC,0.106
21,ACATCTAT,0.0848
22,CTCCAGAA,-0.188
23,AACAAGTC,-0.111
24,AAGACATA,-0.116
25,CTCGGGGA,0.349

row,Sequence,PBM E-score
1,GGACATAA,0.0468
2,AGCACCCC,-0.164
3,AGTGATGA,-0.0977
4,GTGAGTTA,-0.211
5,CGCGGGAA,0.295
6,GGAGATCA,0.0421
7,CAACTGAA,-0.155
8,ATGGGGCA,-0.23
9,CCGCCGAA,0.4
10,ACCCAGGC,0.0532
11,CTCGCAAG,-0.203
12,AGTATTAA,0.0862
13,CTCGCCCC,-0.0101
14,ATAATAAG,-0.0502
15,TAGTAAGA,-0.204
16,AGGCTAAC,-0.0968
17,CGGCGGTC,0.1
18,CCTCACTC,-0.0197
19,CAACACCC,0.0649
20,GTGTTGTA,-0.113
21,CGGGCCAC,0.137
22,CCATCCTA,-0.149
23,ATTAACCC,0.212
24,ACTAGTGA,-0.213
25,TAGAATCA,0.036

row,Sequence,PBM E-score
1,CTCCCTTA,-0.139
2,CCCATGTC,-0.0325
3,GCCCAAGC,-0.0211
4,CACGGGAC,0.214
5,AATGCGAC,-0.0177
6,GGTCGCCA,-0.106
7,AGTAGCGC,-0.181
8,GCTTGGAC,-0.253
9,GCAGCCGC,0.154
10,CTAAATTA,0.0401
11,AAAACTTG,-0.165
12,CTCCATCC,-0.0108
13,AACAACCA,-0.0284
14,GGTATGGA,0.087
15,CATCACGG,0.0595
16,ACGCGTAG,-0.123
17,GGATCTAC,0.0795
18,ATACAAGA,-0.166
19,AACTGACC,0.118
20,CGATGTAA,-0.0849
21,CCCAATGA,-0.164
22,AAGGTGCT,-0.134
23,TCGAAAGA,-0.317
24,GACTAGGC,-0.159
25,CTAAGCAC,-0.212

row,Sequence,PBM E-score
1,CCCCGTTA,-0.0561
2,CAGCCCAG,-0.109
3,AGGAGGTC,-0.159
4,AACGCTCT,-0.242
5,AACTACGG,0.143
6,CGATCTTC,0.215
7,GTACTGAC,-0.0527
8,ACATACCT,-0.163
9,GCGATTCC,0.109
10,CTTACAAG,-0.186
11,AAATTTGA,-0.101
12,GCGGGTCA,0.0978
13,AGCCGTTA,0.183
14,CGGGCAGC,0.211
15,CACCCGCG,0.262
16,CTAGTCAG,-0.31
17,GCCGCGGA,0.241
18,GAGACTAA,0.101
19,AGATGGTC,-0.121
20,CAGAGTCA,-0.1
21,TATTCCCA,0.0571
22,CGGATCCG,0.462
23,GGCCCTAA,-0.0555
24,TATAGGGA,0.00271
25,ACTCCCCA,-0.149

row,Sequence,PBM E-score
1,CGTAATCA,-0.16
2,AGTGTCTA,-0.261
3,CCGCCCCA,0.306
4,ATGGGTAA,0.0979
5,GTGGCAAC,-0.0139
6,CTTACTCC,0.00997
7,CAACACCG,0.0357
8,CTATAGTC,-0.255
9,AAGAGTAA,-0.0424
10,ACTTACAA,-0.131
11,AACCGTAT,-0.0324
12,ATTCCTCG,0.2
13,CCTAAGGA,-0.0356
14,AGGCGACT,-0.0702
15,CCCTATGC,-0.0929
16,ACTTCGGA,0.458
17,AGAAAGCG,-0.106
18,GAGCCCGA,0.156
19,ACCGCAGT,0.00862
20,ACCGACCC,0.191
21,AAAAGGAC,-0.0912
22,AACCACTG,-0.0289
23,CCGAACCA,0.356
24,TCGGAGCA,0.373
25,AAATGCCG,0.36

row,Sequence,PBM E-score
1,CCCTCTAC,-0.308
2,AATGATTC,-0.113
3,AGCCCGCA,-0.162
4,ACCTGAGA,-0.222
5,CAAACGGC,0.0298
6,AAGCTGAC,-0.102
7,CCGGCATC,0.28
8,CCTGTGAC,-0.315
9,ATTGAAGG,-0.166
10,AGCGTAGC,-0.156
11,GAGATTGC,0.063
12,CTCCGCCC,0.166
13,CCTTCGTC,-0.109
14,GCAGAGTA,-0.0468
15,AATAGCGG,0.0554
16,GAGTATTA,-0.0893
17,CACTCCTC,-0.158
18,AGCTCCGG,0.301
19,CTACGACC,-0.232
20,CCGGTCTA,-0.00194
21,AACCATTA,-0.0195
22,AGGAGCTC,-0.0923
23,AGACCATC,-0.15
24,GAGGATGA,-0.136
25,CAGGTCTA,0.00049

row,Sequence,PBM E-score
1,CACGAGCG,-0.199
2,GGACCCAC,0.0405
3,GACAAAGA,-0.0537
4,GGCACAAA,0.104
5,CAGTGTAA,-0.0547
6,AAGCGGCC,0.0516
7,CGGCCTGA,0.0862
8,CCGTACCG,0.304
9,ATTTAGAA,0.00443
10,CTGGTCAA,-0.155
11,CTAGACCA,-0.274
12,ACGGAAGA,0.349
13,ATATTATA,-0.15
14,ATACACCG,0.23
15,CGCGAAAA,0.0356
16,CCTAATCG,-0.0192
17,CTTTTGAA,-0.00939
18,CTTGGAGA,-0.109
19,AAGTCTCA,-0.152
20,AACGCATC,0.0383
21,CTAATGAA,0.0956
22,AAAGATAG,-0.105

# From the supplement of paper PMC3334620
